The values below come from the supplement of paper PMC4723716.

± gives the uncertainty stated by the source. Whole data set: some 9,900 compounds, median “viability index relative to DMSO control” near 1, cut for the lowest 2% near 0.85. This is one part of the list.

In the experiment the test system is Plasmodium falciparum NF54 stage V gametocytes. The experiment is described as follows: viability index relative to DMSO control (fraction); higher = less gametocyte killing. The following applies: 2.5 µM, library set: Broad Institute DOS, incubation time: 72 h. In outline: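 Gametocytes (P. falciparum NF54, stage V) were treated with compound at 2.5 µM for 72 hr at 37°C in low oxygen, in serum-free medium at 0.75% gametocytemia and 1.25% hematocrit. Counts of 20–70 µm2 red particles, taken from one field per well after MitoTracker Red CMXRos with saponin, were divided by the plate mean of solvent-only wells. This ratio is the viability index.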
`COC(=O)C[C@@H]1C=C[C@@H](N)[C@H](CO)O1` gave a viability index of 1.12 ± 0.17. With `COc1ccccc1CNC(=O)C[C@H]1CC[C@H]2[C@H](COc3ccc(NC(C)=O)cc3C(=O)N2C)O1` the figure was 0.988 ± 0.1.

`CCCN1C[C@H](C)[C@@H](OC)CN(C)C(=O)c2ccc(NS(=O)(=O)c3cn(C)cn3)cc2OC[C@H]1C` displayed a viability index of 0.984 ± 0.024. With `C[C@H](O)C#Cc1ccc([C@@H]2[C@H]3CN(C(=O)c4ccc5c(c4)OCO5)CCCCN3[C@H]2CO)cc1` the figure was 1.055 ± 0.0072; with `CCCNC(=O)N[C@@H]1C=C[C@H](CC(=O)N2CCN(C)CC2)O[C@@H]1CO`, 0.936 ± 0.12; with `FC(F)(F)c1cccc(CN2[C@@H]3CNC[C@H]2[C@@H]3c2ccc(-c3cccnc3)cc2)c1`, 1.12 ± 0.04. With `CO[C@H]1CC[C@@H]2CCOc3c(C#N)cccc3C(=O)N(C)CC3(CCCCC3)CC(=O)N(C)C[C@H]1O2` the figure was 1.02 ± 0.009; with `O=C(C[C@@H]1CC[C@H]2[C@@H](COC[C@H](O)CN2Cc2cc(F)ccc2F)O1)NCc1ccc(Oc2ccccc2)cc1`, 1.1 ± 0.15; with `CCS(=O)(=O)Nc1ccc2c(c1)C(=O)N(C)[C@@H]1CC[C@H](CC(=O)N3CCN(C)CC3)O[C@@H]1CO2`, 0.958 ± 0.047. For the compound `CCc1cnc(N2[C@H](CO)[C@@H](c3ccccc3-c3ccccc3C)[C@@H]2C#N)s1`, the viability index was found to be 1.1 ± 0.097. Compound `COCC(=O)Nc1ccc2c(c1)[C@H]1C[C@H](CC(=O)N[C@@H](C)c3ccccc3)O[C@H](CO)[C@H]1O2` registered a viability index of 1.062 ± 0.0016. Consider `CS(=O)(=O)N1[C@@H]2CNC[C@H]1[C@H]2c1ccc(-c2ccccc2)cc1`, for which the viability index amounted to 0.968 ± 0.14. Next, `C[C@@H]1CN([C@H](C)CO)C(=O)c2c(c3ccccc3n2C)-c2ccccc2CO[C@H]1CN(C)C(=O)[C@H](Cc1ccccc1)N(C)C`: 0.999 ± 0.032; `Cc1noc(C)c1S(=O)(=O)N(C)C[C@@H]1Oc2c(NS(=O)(=O)c3cn(C)cn3)cccc2C(=O)N([C@H](C)CO)C[C@H]1C`: 0.989 ± 0.029.

With `O=C(NC1CCCCC1)[C@@H]1[C@@H](CO)[C@@H]2Cn3c(cccc3=O)[C@H]1N2Cc1cccnc1`, the viability index was 1.03 ± 0.058.

In turn, `N#Cc1ccc(-c2ccc([C@@H]3[C@H]4CNCC(=O)N4[C@H]3CO)cc2)cc1` gave a viability index of 0.889 ± 0.055. In turn, `COc1cccc(S(=O)(=O)N(C)C[C@@H]2OCc3ccccc3-c3c(n(C)c4ccccc34)C(=O)N([C@H](C)CO)C[C@H]2C)c1` returned a viability index of 1.01 ± 0.012. Compound `N#C[C@@H]1[C@H](c2ccccc2-c2ccccc2)[C@@H](CO)N1C(=O)Cc1ccncc1` yielded a viability index of 1.05 ± 0.022.

Turning to `CN1C(=O)c2cc(NC(=O)C3CCOCC3)ccc2OC[C@H]2O[C@H](CC(=O)NCC3CCCCC3)CC[C@H]21`, the viability index is 1.02 ± 0.11.

`OC[C@@H]1[C@H](c2ccccc2)C2(CN(CCC(F)(F)F)C2)N1Cc1nccs1` yielded a viability index of 1.14 ± 0.016.

Compound `COCCNC(=O)C[C@H]1CC[C@H]2[C@@H](COc3ccc(NC(=O)Nc4cccc(F)c4)cc3C(=O)N2C)O1` had a viability index of 1.1 ± 0.086. Next, `O=C(NC[C@H]1N[C@H](CO)[C@@H]1c1ccccc1)c1ccccc1F`: 0.99 ± 0.012; `COc1ccc2c3c([nH]c2c1)[C@@H](CO)N(C[C@]31CN(Cc2cc(on2)-c2ccccc2)C1)C(=O)Nc1ccc(F)cc1`: 0.989 ± 0.019; `Cc1noc(C)c1S(=O)(=O)N(C)C[C@@H]1OCCCC[C@H](C)Oc2ccc(NC(=O)CCC(F)(F)F)cc2C(=O)N([C@H](C)CO)C[C@@H]1C`: 1.055 ± 0.0039.

With `CCS(=O)(=O)N1[C@H](CO)[C@H](c2ccccc2)[C@@H]1CN(C)Cc1ccccn1`, the viability index came to 1 ± 0.035. `COc1ccc2c3c([C@@H](CO)N(C[C@]33CN(C3)C(=O)CN3CCOCC3)C(=O)Nc3ccc(F)cc3)n(C)c2c1`: the viability index was 1.17 ± 0.1. With `CC(C)NC(=O)N(C)C[C@H]1Oc2ccc(NC(=O)c3ccncc3)cc2C(=O)N([C@@H](C)CO)C[C@H]1C` the figure was 0.99 ± 0.13.

On to `COc1cccc(-c2ccc([C@H]3[C@@H]4CN(C(=O)Nc5ccccc5F)C[C@H]3N4)cc2)c1`, for which the viability index is 1.04 ± 0.046. Consider `O=C(c1cccc(F)c1)N1CCCCN2[C@H](C1)[C@@H](c1ccc(C#CC3(O)CCCC3)cc1)[C@@H]2CO`, for which the viability index was 1.05 ± 0.044.

As for `CO[C@H]1CN(C)C(=O)c2ccc(NS(=O)(=O)CC(F)(F)F)cc2OC[C@H](C)N(C(=O)NC(C)C)C[C@@H]1C`, the viability index came to 1.02 ± 0.093. On to `O=C(Nc1ccccc1Cl)N1C[C@@H]2[C@H](c3ccccc31)[C@@H](CO)N2Cc1ccncc1`, for which the viability index turned out to be 1.04 ± 0.073. Next, `COc1ccc(C#Cc2ccc([C@H]3[C@@H](CO)N4C(=O)CN(C(=O)c5ccc(F)cc5)C[C@@H]34)cc2)cc1`: 1.16 ± 0.07; `Cc1nn(C)cc1NC(=O)C[C@H]1CC[C@H]2[C@H](COc3ccc(NC(=O)c4cccc(F)c4)cc3C(=O)N2C)O1`: 1.13 ± 0.038.

`COc1ccc2c3c([nH]c2c1)[C@H](CO)N(C[C@]31CCN(CC1)S(=O)(=O)c1cn(C)cn1)C(=O)Nc1ccc(F)cc1` returned a viability index of 1.07 ± 0.047. Take `C[C@@H]1CN([C@@H](C)CO)C(=O)CCCn2cc(nn2)CO[C@H]1CN(C)S(=O)(=O)c1ccc(-n2cccn2)cc1`: the viability index came out at 1.04 ± 0.039.

`CCC(=O)N1CC(=O)N2[C@@H](CO)[C@@H](c3ccc(-c4ccc(C#N)cc4)cc3)[C@@H]2C1` had a viability index of 0.978 ± 0.069.

Compound `COc1ccc(S(=O)(=O)Nc2ccc3c(c2)[C@H]2C[C@@H](CC(=O)N(C)C)O[C@H](CO)[C@H]2O3)cc1` displayed a viability index of 0.996 ± 0.11.

With `CO[C@@H](CN(C)S(=O)(=O)c1ccc(F)cc1)[C@H](C)CN(Cc1ccccc1Cl)[C@@H](C)CO`, the viability index came out at 1.03 ± 0.04.

`C[C@@H](NC(=O)C[C@H]1C[C@@H]2c3cc(NS(=O)(=O)c4ccc(F)cc4)ccc3O[C@@H]2[C@H](CO)O1)c1ccccc1`: the viability index was determined as 1.03 ± 0.071. As for `Cc1noc(C)c1NC(=O)N1C[C@@H](O)COC[C@@H]2O[C@@H](CC(=O)NCC3CC3)CC[C@H]21`, the viability index was determined as 1.14 ± 0.07. `CCCNC(=O)Nc1ccc2c(c1)OC[C@@H](C)N(C(=O)C1CCOCC1)C[C@H](C)[C@H](OC)CN(C)C2=O` came in with a viability index of 0.996 ± 0.052. With `CCN(C[C@@H]1N[C@@H](CO)[C@H]1c1ccc(-c2ccc(F)cc2)cc1)C(=O)CN(C)C` the figure was 0.711 ± 0.021; with `Cc1ccccc1-c1cnc2c(c1)C(=O)N([C@H](C)CO)C[C@@H](C)[C@H](CN(C)Cc1ccccc1F)O2`, 1.01 ± 0.08; with `CN1C(=O)c2cc(NC(=O)c3ccc(C(F)(F)F)cc3)ccc2OC[C@@H]2O[C@@H](CC(=O)NCc3ccc4c(c3)OCO4)CC[C@@H]21`, 0.984 ± 0.041. `O=C1CNC[C@H]2[C@H](c3ccc(C#CC4CCCCC4)cc3)[C@H](CO)N12` had a viability index of 1.07 ± 0.059. Next, `CO[C@@H](CN(C)Cc1ccc2c(c1)OCO2)[C@@H](C)CN(C(=O)Nc1ccc(F)cc1)[C@H](C)CO`: 1.07 ± 0.018. With `CO[C@@H]1CC[C@H]2CCN(C)C(=O)[C@@H](C)N(C)C(=O)c3cccc(C#N)c3OC[C@@H]1O2` the figure was 1.05 ± 0.025; with `C/C=C/c1ccc([C@H]2[C@@H](CO)N3C(=O)CN(C(=O)NC4CCCCC4)C[C@@H]23)cc1`, 1.05 ± 0.011. In turn, `COc1ccc(S(=O)(=O)Nc2ccc3c(c2)[C@@H]2C[C@@H](CC(=O)N(C)C)O[C@@H](CO)[C@@H]2O3)cc1` registered a viability index of 1.06 ± 0.081. Turning to `COCC(=O)Nc1ccc2c(c1)C(=O)N(C)C[C@@H](OC)[C@@H](C)CN(CCc1ccccc1)[C@H](C)CO2`, the viability index was determined as 1.04 ± 0.044.

`COc1ccc(NC(=O)N(C)C[C@@H]2OCc3cnnn3CCCC(=O)N([C@@H](C)CO)C[C@H]2C)c(OC)c1`: the viability index was 1.074 ± 0.0047.

In the case of `C[C@@H]1CCCCO[C@H](CN(C)C(=O)Cc2ccccc2)[C@H](C)CN([C@@H](C)CO)C(=O)c2cc(NS(C)(=O)=O)ccc2O1`, the viability index amounted to 0.998 ± 0.017. With `O=C(C[C@H]1CC[C@H]2NC[C@H](O)COC[C@@H]2O1)NC1Cc2ccccc2C1` the figure was 1.05 ± 0.049; with `COc1ccc2c3c([nH]c2c1)[C@@H](CO)N(C[C@]31CCN(CC2CCCCC2)CC1)S(=O)(=O)c1cn(C)cn1`, 0.97 ± 0.038; with `C[C@H](O)C#Cc1ccc([C@H]2[C@@H](CO)N3CCCCN(C(=O)c4ccc5c(c4)OCO5)C[C@H]23)cc1`, 1.077 ± 0.0058. The compound `COc1ccc(CNC(=O)N(C)C[C@H]2OCc3ccccc3-c3c(n(C)c4ccccc34)C(=O)N([C@H](C)CO)C[C@H]2C)cc1` yielded a viability index of 0.88341 ± 7.6e-05. With `CO[C@@H](CN(C)S(=O)(=O)c1cn(C)cn1)[C@H](C)CN(C(=O)Nc1ccc(C(F)(F)F)cc1)[C@@H](C)CO` the figure was 0.954 ± 0.012; with `CS(=O)(=O)N1CC(=O)N2[C@H](CO)[C@@H](c3ccc(C#CCC4CCCC4)cc3)[C@H]2C1`, 0.982 ± 0.061. In turn, `CCCC(=O)Nc1ccc2c(c1)OC[C@@H](C)N(CC1CCOCC1)C[C@H](C)[C@@H](OC)CN(C)C2=O` returned a viability index of 1.04 ± 0.06. In turn, `COCCNC(=O)C[C@H]1C[C@@H]2c3cc(NC(=O)CN(C)C)ccc3O[C@@H]2[C@@H](CO)O1` registered a viability index of 1.06 ± 0.018.

In turn, `CO[C@@H]1CN(C)C(=O)c2cc(NC(=O)c3nc4ccccc4s3)ccc2OC[C@H](C)NC[C@@H]1C` had a viability index of 1.01 ± 0.034. Next, `CC(C)C[C@@H]1COCc2cn(nn2)CC[C@H](C)C(=O)N1`: 1.097 ± 0.0051; `CCNC(=O)C[C@H]1CC[C@H]2[C@@H](COC[C@@H](O)CN2C(=O)c2ccccn2)O1`: 1.11 ± 0.059.

`COc1ccc(NC(=O)N2C[C@@H]3[C@H](c4ccccc42)[C@@H](CO)N3Cc2ccccn2)cc1` yielded a viability index of 1.043 ± 0.0079. Turning to `C[C@@H]1CCCCO[C@@H](CN(C)Cc2ccc(C(=O)O)cc2)[C@@H](C)CN([C@H](C)CO)C(=O)c2cc(N(C)C)ccc2O1`, the viability index came out at 1.18 ± 0.13.

Turning to `COCC(=O)N1[C@H](CO)[C@H](c2ccccc2)C12CN(C(=O)c1ccccc1)C2`, the viability index amounted to 0.986 ± 0.058. Next, `COc1ccc(S(=O)(=O)Nc2cccc3c2O[C@@H](CN(C)CC2CCCCC2)[C@H](C)CN([C@H](C)CO)C3=O)cc1`: 0.958 ± 0.094. As to `CN1c2ccc(C3=CCCCC3)cc2[C@H]2[C@H](CCN2C(=O)Cc2ccccn2)[C@@H]1CO`, the viability index came out at 0.947 ± 0.037. In turn, `CNC(=O)C[C@H]1CC[C@H]2[C@@H](COC[C@H](O)CN2Cc2ccccc2F)O1` returned a viability index of 1.1 ± 0.062. Next, `COCC(=O)N1CC(=O)N2[C@@H](CO)[C@@H](c3ccc(C#CC4CC4)cc3)[C@@H]2C1`: 1.08 ± 0.052; `C[C@@H]1CN([C@@H](C)CO)C(=O)c2ccccc2-c2ccccc2CO[C@@H]1CN(C)C(=O)Nc1cccc(Cl)c1Cl`: 0.946 ± 0.053.
